Source: PubChem BioAssay AID588342 (National Center for Advancing Translational Sciences (NCATS), 2011)
The whole screen tested about 360,000 compounds, of which about 25,000 (6.9%) were called active. Inconclusive means that the source gave no clear call. Such entries were picked first, then a sample of the others. The call rests on the fitted dose curve; in most records, active means well fitted inhibition curve with a large enough effect; inconclusive means small, poorly fitted or top-dose-only effect; inactive means flat fitted curve, though single readings scatter. Potencies beside an inconclusive call are fits to weak or partial responses and may not hold up.

Molecular target: Luciferin 4-monooxygenase (Photinus pyralis) (UniProt P08659)
UniProt P08659, sequence (P08659 whole entry, looked up): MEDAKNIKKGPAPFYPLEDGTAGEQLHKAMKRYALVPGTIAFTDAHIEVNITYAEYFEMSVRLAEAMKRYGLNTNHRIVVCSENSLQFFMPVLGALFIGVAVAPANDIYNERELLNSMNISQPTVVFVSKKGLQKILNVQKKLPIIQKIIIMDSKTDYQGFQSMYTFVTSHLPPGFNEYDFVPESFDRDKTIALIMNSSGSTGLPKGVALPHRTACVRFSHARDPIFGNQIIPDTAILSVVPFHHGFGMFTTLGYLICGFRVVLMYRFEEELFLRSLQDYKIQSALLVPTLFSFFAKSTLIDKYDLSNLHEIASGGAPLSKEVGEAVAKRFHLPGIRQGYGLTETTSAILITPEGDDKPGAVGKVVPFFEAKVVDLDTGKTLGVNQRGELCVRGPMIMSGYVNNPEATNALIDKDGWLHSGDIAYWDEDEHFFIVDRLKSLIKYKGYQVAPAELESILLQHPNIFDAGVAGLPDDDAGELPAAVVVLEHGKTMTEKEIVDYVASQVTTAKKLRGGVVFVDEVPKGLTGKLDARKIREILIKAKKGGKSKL
Experiment: qHTS profiling assay for firefly luciferase inhibitor/activator using purifed enzyme and Km concentrations of substrates (counterscreen for miR-21 project); further: nearly all actives have a fitted effect of over 55% in size
Conditions: purified FLuc, luminescence inhibition; series mostly up to 57.5 µM
Method in brief: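 Biochemical qHTS of compounds, final roughly 60 µM downward over six points, against 10 nM purified firefly luciferase using Km concentrations of substrates (10 uM D-luciferin, 10 uM ATP) in Tris acetate pH 7.5 buffer; luminescence output.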
Potency means the concentration at half of the fitted maximal effect; tags describe the fitted curve by direction and shape.

Row | Compound | Potency
1 | CC(=O)Nc1nc2ccc(-c3nc4ccccc4o3)cc2s1 | active: 3.38 µM
2 | Cc1cccc(N2CCC(N=CN(C)C)=N2)c1 | inconclusive: 26.9 µM [inhibitor, partial curve]
3 | O=C(NCCc1csc(-c2ccc(F)cc2)n1)c1cccs1 | inconclusive: 37.9 µM [inhibitor, partial curve, poor fit]
4 | COc1ccc(NC(=O)Cn2c(=O)cc(C)c3c(C)nn(-c4cccc(Cl)c4C)c32)cc1OC | inactive
5 | Oc1ccc(-c2cn3cc(C(F)(F)F)ccc3n2)cc1 | active: 0.675 µM
6 | Cc1noc(/C=C/N(C)C)c1S(=O)(=O)N1CCCC(C(=O)Nc2ccccc2F)C1 (configuration not stated) | inactive
7 | CC(C)(CNC(=O)C1c2ccccc2-c2ccccc21)N1CCOCC1 | inactive
8 | COc1ccc(-c2[nH]c(-c3ccccc3)nc2SCC(=O)Nc2ccc3c(c2)OCCO3)cc1 | inactive
9 | Cc1ccc(CNC(=O)CC2Nc3c4ccccc4nc(=S)n3C2=O)cc1 (configuration not stated) | inactive
10 | CN(C)S(=O)(=O)c1ccc(Cl)c(C(=O)NNC(=O)c2ccc3c(c2)OCO3)c1 | inconclusive: 37.9 µM [inhibitor, partial curve, poor fit]
11 | O=C(COc1cccc(NC(=O)c2cccc([N+](=O)[O-])c2)c1)c1ccc(F)cc1 | inconclusive: 19 µM [inhibitor, partial curve]
12 | Cc1ccc2nc(NC(=O)CN(C)S(=O)(=O)c3ccc(Br)s3)sc2c1 | inconclusive: 26.9 µM [inhibitor, single point]
13 | Cc1nnc2c3cnn(-c4ccc(Cl)cc4)c3ncn12 | inconclusive: 12 µM [inhibitor, partial curve]
14 | CN(C)c1ccc(C(=S)N2CCN(S(=O)(=O)c3ccccc3)CC2)cc1 | inactive
15 | Cn1c(Cl)c(/C=N/OC(=O)C2CC2)c2ccccc21 | inconclusive: 26.9 µM [inhibitor, partial curve, poor fit]
16 | O=C(NCCN1CCOCC1)c1cn(-c2ccccc2)nc1-c1cccs1 | inconclusive: 19 µM [inhibitor, partial curve, poor fit]
17 | NNC(=O)c1[nH]c(-c2ccccc2)cc1-c1ccccc1 | inconclusive: 30.1 µM [inhibitor, single point]
18 | COc1cc(/C=N/Nc2ncnc3sc4c(c23)CCC4)ccc1O | active: 2.39 µM
19 | Cc1ccc(OCC(=O)c2c[nH]c3ccccc23)c([N+](=O)[O-])n1 | inconclusive: 16.9 µM [inhibitor, partial curve, poor fit]
20 | O=C(NN=C(Cc1ccccc1)Cc1ccccc1)c1ccccc1F | inconclusive: 37.9 µM [inhibitor, single point]
21 | O=Cc1cccc(OC(=O)/C=C/c2ccco2)c1 | active: 26.9 µM
22 | Cc1nnc(SCc2ccccc2Cl)c2cc3sccc3n12 | inconclusive: 13.5 µM [inhibitor, partial curve]
23 | CC(=O)c1ccc(NC(=O)c2cc(-c3ccc4c(c3)OCO4)on2)cc1 | inactive
24 | C=CCN1CC(O)=C(c2nc3ccccc3[nH]2)C1=N | inconclusive: 21.3 µM [inhibitor, partial curve, poor fit]

Row | Compound | Potency
25 | CCOc1ccc(NS(=O)(=O)c2cccc(C(=O)NCC3(N(C)C)CCCCC3)c2)cc1 | inactive
26 | c1cncc(-c2ccc3[nH]ccc3c2)c1 | inconclusive: 19 µM [inhibitor, single point]
27 | CC(C)(C)c1csc(Sc2ccc([N+](=O)[O-])cn2)n1 | inconclusive: 37.9 µM [inhibitor, partial curve, poor fit]
28 | N#C/C(=N\Nc1ccc([N+](=O)[O-])cc1)C(N)=S | active: 16.9 µM
29 | O=C(O)CSCc1cnn(-c2ccccc2)c1-n1cccc1 | inconclusive: 16.9 µM [inhibitor, partial curve]
30 | Cc1ccc(OCC(=O)Nc2ccc3c(c2)C(=O)N(CCC(=O)O)C3=O)cc1 | inconclusive: 26.9 µM [inhibitor, single point]
31 | O=C(COC(=O)c1ccc(N2CCCC2=O)cc1)c1ccccc1 | inconclusive: 2.69 µM [inhibitor, full curve]
32 | Cc1nc2cc(N3CCN(C)CC3)c(NC(=O)Cc3ccccc3)cc2c(=O)n1Cc1ccccc1 | inconclusive: 37.9 µM [inhibitor, single point]
33 | S=C(Nc1ccccc1)c1nc2ccccc2s1 | inconclusive: 5.36 µM [inhibitor, partial curve]
34 | Cc1ccnc(NC(=O)c2c(C)oc3ncn(CC(C)C)c(=O)c23)c1 | inconclusive: 15.1 µM [inhibitor, partial curve, poor fit]
35 | CCOc1ccc(NC(=O)N(Cc2c[nH]c3ccccc23)C2CCCCCC2)cc1 | inactive
36 | COc1cccc(OC)c1C(=O)NC(=O)Oc1c(F)cccc1F | inactive
37 | CC(=O)N(C)c1ccc(NC(=O)Nc2ccccc2C)cc1 | active: 12 µM
38 | O=C(Nc1ccc(Cl)cc1)/C(=C/c1cccc(O)c1)c1nc2ccccc2s1 | inconclusive: 23.9 µM [inhibitor, partial curve]
39 | N#Cc1ccc(-c2ccc(F)cc2)nc1SCC(=O)Nc1sc2c(c1C#N)CCC2 | inactive
40 | COc1ccccc1C/C(N)=N/OC(=O)COc1ccc2ccccc2c1 | inconclusive: 23.9 µM [inhibitor, partial curve, poor fit]
41 | COc1ccc(NC(=O)c2ccc(CNc3c(N4CCCC4)c(=O)c3=O)cc2)cc1Cl | inconclusive: 30.1 µM [inhibitor, single point]
42 | Cc1ccc(CN(C(=O)COc2ccc(Cl)cc2C)C2CCS(=O)(=O)C2)o1 (configuration not stated) | inactive
43 | CCCn1c(=O)c2c(nc3n2CCN3c2ccc(C)cc2)n(C)c1=O | inconclusive: 37.9 µM [inhibitor, partial curve, poor fit]
44 | CCCCNC(=O)c1onc(CSc2cccc(OCC)c2)c1C(=O)O | inconclusive: 30.1 µM [inhibitor, partial curve, poor fit]
45 | C/C(=N\NC(=O)c1nn(C)cc1Br)c1cccc(NC(=O)C(C)(C)C)c1 | inconclusive: 30.1 µM [inhibitor, single point]
46 | Cc1cc(NCCCN2CCOCC2)n2ncc(-c3ccc(Cl)cc3)c2n1 | active: 16.9 µM
47 | Clc1ccc(OCCCc2nc(-c3ccncc3)no2)c(Cl)c1 | inactive
48 | O=C(C/C=N/OCc1c(Cl)cccc1Cl)c1ccccc1 | inconclusive: 16.9 µM [inhibitor, partial curve]

Row | Compound | Potency
49 | CNC(=S)N1CCN(c2nc(-c3ccc(Cl)cc3)cs2)CC1 | inconclusive: 26.9 µM [inhibitor, partial curve, poor fit]
50 | Cc1ccc(NC(=S)NNC(=O)c2nnn(-c3ccccc3)c2C)cc1 | inconclusive: 37.9 µM [inhibitor, partial curve, poor fit]
51 | CS(=O)(=O)N(CC(=O)Nc1ccc(S(=O)(=O)N2CCCC2)cc1)c1ccccc1 | inconclusive: 0.0076 µM [inhibitor, partial curve, poor fit]
52 | C=CCOc1cccc(CNc2cccc(C(=O)O)c2)c1 | active: 9.53 µM
53 | CCN(C(=O)CCN1C(=O)S/C(=C\c2ccccc2)C1=O)C1CCS(=O)(=O)C1 (configuration not stated) | inconclusive: 26.9 µM [inhibitor, partial curve, poor fit]
54 | COc1ccc(-c2cc(C(=O)Nc3sc4c(c3C#N)CCCC4)c3ccccc3n2)cc1 | active: 15.1 µM
55 | O=C(c1ccccc1)N1CCN(c2ncnc3c2cnn3-c2ccccc2)CC1 | inactive
56 | CC1CCCC(C)N1c1ccc(S(=O)(=O)N2CCOCC2)cc1Cl (configuration not stated) | inactive
57 | CCOC(=O)c1c(N)sc2c(OC)c(Br)ccc12 | active: 19 µM
58 | Cc1ccc(Nc2nc3ccc(Cl)cc3n3cnnc23)cc1F | inactive
59 | CCOc1ccc(C(=O)NCC(=O)OCc2c(F)cccc2Cl)cc1 | inconclusive: 6.01 µM [inhibitor, single point]
60 | CC(C)(C)C(=O)NC(=S)Nc1sc2c(c1C#N)CCCCC2 | inconclusive: 30.1 µM [inhibitor, partial curve, poor fit]
61 | Cc1ccc(SCC(=O)Nc2cccc(NC(=O)c3ccco3)c2)cc1 | active: 19 µM
62 | CCN(CC)Cc1c(NC(=O)c2ccc(OC)cc2)sc2c1CCCC2 | inconclusive: 10.7 µM [inhibitor, partial curve]
63 | CC(C)(C)NC(=O)Cn1nnc(-c2ccc(OCc3c(F)cccc3Cl)cc2)n1 | inconclusive: 23.9 µM [inhibitor, single point]
64 | Cc1nc2sc(-c3ccccc3)cc2c(=O)n1-n1cccc1 | active: 7.57 µM
65 | CCOC(=O)C1CCN(C(=O)CSCc2nc(-c3ccc(OCC)cc3)oc2C)CC1 | inconclusive: 23.9 µM [inhibitor, single point]
66 | Cc1ccc(C)c(-c2nnc(NC(=O)c3ccc4c(c3)OCCO4)o2)c1 | inconclusive: 10.7 µM [inhibitor, partial curve]
67 | CN1c2ccccc2C(O)=C(C(=S)Nc2ccc(Cl)cc2)S1(=O)=O | active: 19 µM
68 | COc1ccc(-c2cc(C(=O)Oc3cccc(C)c3)c3cc(C)ccc3n2)cc1 | inactive
69 | COc1ccc(/C=C2\Oc3cc(OCC(=O)N4CCC(C(=O)O)CC4)ccc3C2=O)c(OC)c1 | active: 6.75 µM
70 | Cc1ccc2oc(C(=O)Nc3ccc(S(=O)(=O)Nc4onc(C)c4C)cc3)c(C)c2c1 | active: 7.57 µM
71 | Cc1nc(COc2cccc(Cl)c2)sc1C(=O)/C=C/N(C)C | inconclusive: 26.9 µM [inhibitor, single point]
72 | O=C1Nc2ccccc2Nc2ncccc21 | inactive
